According to PubChem BioAssay AID624296 (National Center for Advancing Translational Sciences (NCATS), 2012):
The whole screen tested about 350,000 compounds, of which about 9,900 (2.8%) were called active. Inconclusive means that the source gave no clear call. Such entries were picked first, then a sample of the others. Calls follow the shape of the dose curve; as a rule, active = well fitted activation curve with a large enough effect; inconclusive = small, poorly fitted or top-dose-only effect; inactive = no such curve, though single readings can be large or run the other way. Potencies of inconclusive entries are left out as doubtful fits.

Test: A quantitative high throughput screen for small molecules that induce DNA re-replication in MCF 10a normal breast cells. Also: nearly all actives have a fitted effect of over 50% in size.
Conditions: MCF 10A DNA re-replication, Hoechst nuclear intensity, 48 h; series mostly up to 46.1 µM
Potency is read from the fitted curve at half-maximal effect; tags tell the direction and shape of the fitted curve.

| Structure (SMILES) | Potency |
| --- | --- |
| O=C(CSc1nnc(Cn2nnc(-c3ccccc3)n2)n1-c1ccccc1)Nc1ccccc1 | inactive |
| CC(=O)Nc1ccc(C(=O)NNC(=O)CCCCC(=O)NNC(=O)c2ccc(NC(C)=O)cc2)cc1 | inactive |
| COc1ccc(/C=C(\NC(=O)c2ccco2)C(=O)N2CCOCC2)cc1 | inconclusive [activator, partial curve, poor fit] |
| COc1ccc(C2c3c(ncn(CCCO)c3=N)Oc3ccc4ccccc4c32)cc1OC (centres undefined) | inconclusive [activator, single point] |
| O=C(NC(=S)Nc1ccc(Cl)cn1)C(c1ccccc1)c1ccccc1 | active: 14.6 µM |
| CN1CCN(CC(=O)N(C)c2nc(-c3ccccc3)cs2)CC1 | inconclusive [activator, single point] |
| Cc1cc(C)c2nc(NNC(=O)c3cc(-c4cccs4)nc4ccccc34)sc2c1 | inconclusive [activator, partial curve, poor fit] |
| O=C(CSc1nc2ccccc2nc1N1CCCCC1)N1CCN(c2ccccc2)CC1 | active: 4.11 µM |
| COc1cc(-c2c(C#N)c(=O)[nH]c3c2c(C)nn3-c2ccccc2)ccc1O | inconclusive [activator, partial curve, poor fit] |
| Cc1ccccc1C(=O)N1CCN(c2ccc(NC(=O)c3cccc(OC(C)C)c3)cc2)CC1 | inactive |
| O=C(NNC1=NCCC1)c1cccc(S(=O)(=O)N2CCOCC2)c1 | inactive |
| COc1ccc(C(C[N+](=O)[O-])c2c(C)[nH]n(-c3ccccc3)c2=O)cc1 (centres undefined) | active: 11.6 µM |
| O=C(c1cc(-c2ccc(O)cc2)on1)N1CCN(c2ccc(F)cc2)CC1 | inactive |
| Cc1ccccc1C(=O)/C=C1/c2ccccc2CC(C)(C)N1C | inconclusive [activator, partial curve, poor fit] |
| Cc1ccc(NC(=S)c2ccc(N(C)C)cc2)cc1 | inconclusive [activator, partial curve, poor fit] |
| Cc1cc(N/N=C/c2cccc(Cl)c2)nc(-n2nc(C)cc2C)n1 | inconclusive [activator, single point] |
| Cc1noc(/C=C/c2ccco2)c1S(=O)(=O)N1CCC(C(=O)N2c3ccccc3CC2C)CC1 (centres undefined) | inconclusive [activator, partial curve, poor fit] |
| CC(=O)c1cccc(Nc2nc(-c3sc(N)nc3C)cs2)c1 | inconclusive [activator, partial curve, poor fit] |
| CCN1CCN(CCNC(=O)c2ccc(CS(=O)c3ccc(Br)cc3)o2)CC1 (centres undefined) | inconclusive [activator, partial curve, poor fit] |
| O=C1N/C(=N/c2ccccn2)SC1Cc1ccccc1 (centres undefined) | inactive |
| O=C(Nc1ccccc1)N1CCc2c([nH]c3ccccc23)C1C(F)(F)F (centres undefined) | inconclusive [activator, single point] |
| CCC1C(c2ccccc2)N(C)C(c2ccccc2)CC1(O)c1ccccc1 (centres undefined) | inconclusive [activator, single point] |
| Cc1ccc(NC(=S)N(CCCN2CCOCC2)Cc2ccco2)cc1Cl | inactive |

| Structure (SMILES) | Potency |
| --- | --- |
| COc1ccccc1N(C(=O)c1ccncc1)c1nc(-c2ccc([N+](=O)[O-])cc2)cs1 | inconclusive [activator, single point] |
| O=C1CSC(c2cn(-c3ccccc3)nc2-c2cc3ccccc3o2)N1Cc1ccccc1 (centres undefined) | inactive |
| COc1ccc(-c2cc(C(F)F)n3ncc(C(=O)Nc4cccc(S(=O)(=O)N5CCOCC5)c4)c3n2)cc1 | inconclusive [activator, partial curve, poor fit] |
| CCCOc1ccc(C(=O)C(CN2CCOCC2)c2ccccc2)cc1 (centres undefined) | active: 17.8 µM |
| COC(=O)c1ccc(Sc2nnnn2-c2ccccc2)c([N+](=O)[O-])c1 | inconclusive [activator, full curve, poor fit] |
| COc1ccc(Nc2c([N+](=O)[O-])ccc3c2=NC2(CCCCC2)N=3)cc1 | inconclusive [activator, single point] |
| CC(C)(C)NC(=O)C12CCC(C)(c3nc4ccccc4nc31)C2(C)C (centres undefined) | inconclusive [activator, partial curve, poor fit] |
| NC(=O)CC(NC(=O)c1ccccc1)c1ccc(NCCN2CCOCC2)c([N+](=O)[O-])c1 (centres undefined) | inconclusive [activator, partial curve, poor fit] |
| CSC(SC)=C(C#N)C(=O)c1ccccc1 | active: 23.1 µM |
| O=[N+]([O-])c1ccc(-c2cnc(SC(c3ccccc3)c3ccccc3)[nH]2)cc1 | inconclusive [activator, single point] |
| Cc1ccc(OCCCC(=O)Nc2ccc(Cl)c(S(=O)(=O)N3CCOCC3)c2)cc1 | inconclusive [activator, single point] |
| COc1ccccc1CN1CCNC(=O)C1CC(=O)N(C)Cc1cnccn1 (centres undefined) | inactive |
| CC1CC(C)CN(S(=O)(=O)c2ccc(C(=O)NNC(=O)c3ccccc3F)cc2)C1 (centres undefined) | inactive |
| CC1CCN(CC(O)COCCOc2ccc(Br)cc2)CC1 (centres undefined) | inconclusive [activator, single point] |
| Cc1ccc(C)c(NC(=O)/C(C#N)=C/c2ccc[nH]2)c1 | inconclusive [activator, single point] |
| CCCCCn1c(=NC(=O)c2cccnc2)c(C#N)cc2c(=O)n3cccc(C)c3nc21 | active: 13 µM |
| CSc1nc2c(c(=O)[nH]1)C(c1ccccc1)C1=C(CC(C)(C)CC1=O)N2 (centres undefined) | inconclusive [activator, single point] |
| CC(C)(C)NC(=O)COc1ccc(CNCc2ccccn2)cc1 | active: 16.4 µM |
| CC1(c2nnc(-c3ccc(Cl)cc3)o2)CC(c2c(Cl)cccc2Cl)=NO1 (centres undefined) | inconclusive [activator, partial curve, poor fit] |
| O=C(c1cc2c(ccc3ccccc32)oc1=O)N1CCCC1 | inactive |
| O=c1[nH][nH]c(=O)c(Cl)c1Cl | inactive |
| O=C(Cn1c(=O)c(=O)n(Cc2ccccc2)c2ccc(Cl)cc21)Nc1ccc(F)cc1F | inactive |
| CCCCCCC(O)(c1ccccc1)C(CN1CCOCC1)c1ccccc1 (centres undefined) | inconclusive [activator, single point] |

| Structure (SMILES) | Potency |
| --- | --- |
| Cc1cc(-c2nnc3n2N=C(c2ccccc2Br)CS3)n[nH]1 | inconclusive [activator, partial curve, poor fit] |
| NNC(=O)COc1ncn(-c2ccccc2)n1 | inactive |
| O=C(c1cccc(N2CCNC2=O)c1)N1CCCC(Nc2cccc(F)c2)C1 (centres undefined) | inconclusive [activator, single point] |
| COc1cc(/C=C/C(=O)Nc2ccc(OC)c(S(=O)(=O)N3CCOCC3)c2)ccc1OCC#N | inconclusive [activator, full curve, poor fit] |
| CCCCN1CCNC[C@@H]1c1ccccc1 | inactive |
| CC(=O)C1=C(C)NC(SCC(=O)c2ccc(Cl)cc2)=C(C#N)C1CC(C)C (centres undefined) | inconclusive [activator, single point] |
| COc1ccc(-c2ccc([C@H]3[C@@H]4C=CCC[C@@]4(C)C(=O)N3Cc3ccccc3)c(F)c2)cc1 | inconclusive [activator, single point] |
| COC(=O)c1ccc(NC2(C#N)C(=O)Nc3ccccc32)cc1 (centres undefined) | inconclusive [activator, single point] |
| COc1cc(/C=C2\N=C(c3ccccc3)NNC2=O)cc(OC)c1OC | active: 1.84 µM |
| NNC(=O)c1sc(-c2ccccc2)cc1N | active: 20.6 µM |
| O=C(c1cc(-c2ccccc2Cl)on1)N1CCN(C(=O)c2ccco2)CC1 | inactive |
| Cc1nc(Nc2nc(-c3ccccc3)cc(=O)[nH]2)nc2ccccc12 | inconclusive [activator, single point] |
| CCOC(=O)c1ccc(-c2ccc(/C=N/NC(=O)CN(c3ccccc3Cl)S(C)(=O)=O)o2)cc1 | inconclusive [activator, partial curve] |
| Cc1ccc(N2C(=O)CS/C2=N\C(=S)Nc2ccccc2)cc1 | inactive |
| Cc1ccc(OCC(=O)N2CCc3ccccc3C2)c(Br)c1 | inconclusive [activator, single point] |
| CC(C)[C@H](NC(=O)c1ccccc1)C(=O)OCC(=O)N1CC2(C)CC1CC(C)(C)C2 (some centres undefined) | inconclusive [activator, partial curve, poor fit] |
| Cc1cc(SCC(=O)c2cccs2)nc2c(C)cccc12 | inconclusive [activator, partial curve, poor fit] |
| CC(C)(C)C1CCC(=NNC(=O)c2cc3c(s2)CCCC3)CC1 (centres undefined) | inactive |
| CCC1(CC)Cc2ccccc2-c2nc3ccccc3c(=O)n21 | inconclusive [activator, partial curve, poor fit] |
| CCCN1CCN(C(=O)c2cn(CC(C)C)c(=O)c3cc(OC)c(OC)cc23)CC1 | inactive |
| COc1cc2cc(C(=O)N3CCc4ccccc4C3)[nH]c2cc1OC | inactive |
| O=C(Nc1ccsc1C(=O)N1CCCCCC1)c1ccccc1 | inconclusive [activator, partial curve, poor fit] |
| OCCC1CN(Cc2nc3c(s2)CCCC3)CCN1CCc1ccccc1 (centres undefined) | inconclusive [activator, full curve, poor fit] |
